The supplement of paper PMC4604168 (melanoma cell lines)
The other results are listed elsewhere or left out. Repeats are few or missing, and single values can be far off.

Test system: UACC257
Assay: cell count relative to DMSO control; melanoma cells; higher = more viable cells
Conditions: library dose: standard library concentration; 72 h
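Note: cells treated in 1,536-well plates, then fixed and DAPI-stained, with nuclei counted from automated high-throughput microscope images.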

| Compound | cell count [%] |
| --- | --- |
| CCCCCCCCc1ccc(CCC(N)(CO)CO)cc1 [fingolimod] + CC(C)CCN1c2nc(Nc3cc(F)c(O)c(F)c3)ncc2N(C)C(=O)C1C [BID1870] (first compound 10 µM, partner dose 1 µM) | 81.8 |
| NC(=O)c1ccc(N(C(N)=O)c2c(F)cccc2F)nc1-c1ccc(F)cc1F + N#Cc1c(O)c2c(-c3ccc(-c4ccccc4O)cc3)csc2[nH]c1=O [A769662] (first compound 2 µM, partner dose 10 µM) | 103 |
| CCCCCCCCc1ccc(CCC(N)(CO)CO)cc1 [fingolimod] + O=C(O)c1ccc(-c2c[nH]c3ncc(-c4ccccc4)cc23)cc1C1CCCC1 [GSK650394] (first compound 10 µM, partner dose 0.8 µM) | 69.8 |
| CCCCCCCCc1ccc(CCC(N)(CO)CO)cc1 [fingolimod] + CCN(CC)CCCCNc1ncc2cc(-c3cc(OC)cc(OC)c3)c(NC(=O)NC(C)(C)C)nc2n1 [PD173074] (first compound 10 µM, partner dose 0.5 µM) | 85.7 |
| NC(=O)c1ccc(N(C(N)=O)c2c(F)cccc2F)nc1-c1ccc(F)cc1F + CCCCCCCCCCCC1=C(O)C(=O)C=C(O)C1=O [Embelin] (first compound 2 µM, partner dose 6 µM) | 97.4 |
| CCCCCCCCc1ccc(CCC(N)(CO)CO)cc1 [fingolimod] + O=C(Nc1ccccc1)c1cc([N+](=O)[O-])ccc1Cl [GW9662] (first compound 10 µM, partner dose 10 µM) | 64 |
| NC(=O)c1ccc(N(C(N)=O)c2c(F)cccc2F)nc1-c1ccc(F)cc1F + Cn1cc(/C=C2\C(=O)Nc3cccnc32)c2ccccc21 [GW441756] (first compound 2 µM, partner dose 2 µM) | 95.2 |

Test system: UACC62
Assay: as above
Conditions: library dose: standard library concentration; 72 h

| Compound | cell count [%] |
| --- | --- |
| NC(=O)c1ccc(N(C(N)=O)c2c(F)cccc2F)nc1-c1ccc(F)cc1F + O=C1NC(=O)/C(=C/c2ccc(-c3ccc(F)cc3O)o2)S1 [AS252424] (first compound 2 µM, partner dose 5 µM) | 131 |
| NC(=O)c1ccc(N(C(N)=O)c2c(F)cccc2F)nc1-c1ccc(F)cc1F + COc1ccc(COc2ccc(Cc3cnc(N)nc3N)cc2OC)cc1 [GW2580] (first compound 2 µM, partner dose 5 µM) | 90.7 |
| NC(=O)c1ccc(N(C(N)=O)c2c(F)cccc2F)nc1-c1ccc(F)cc1F + O=C(O)C(=O)Nc1sc2c(c1C(=O)O)CCNC2 [TCS401] (first compound 2 µM, partner dose 8.33333 µM) | 101 |
| CC(C)(C)c1cnc(CSc2cnc(NC(=O)C3CCNCC3)s2)o1 + CC(C)CCN1c2nc(Nc3cc(F)c(O)c(F)c3)ncc2N(C)C(=O)C1C [BID1870] (first compound 0.05 µM, partner dose 1 µM) | 62.6 |
| COc1cc2c(Oc3ccc4[nH]c(C)cc4c3F)ncnc2cc1OCCCN1CCCC1 [cediranib] + COc1ccc(-c2ccc3c(N4CCOCC4)nc(N4C[C@@H](C)O[C@@H](C)C4)nc3n2)cc1CO [KU0063794] (first compound 2 µM, partner dose 0.1 µM) | 81 |
| CCc1ccc(CCOc2ccc(CC3SC(=O)NC3=O)cc2)nc1 (stereo unspecified) [pioglitazone] + Cn1cc(/C=C2\C(=O)Nc3cccnc32)c2ccccc21 [GW441756] (first compound 10 µM, partner dose 2 µM) | 73.9 |
| NC(=O)c1ccc(N(C(N)=O)c2c(F)cccc2F)nc1-c1ccc(F)cc1F + O=c1cc(-c2cccc3c2Sc2ccccc2S3)oc(N2CCOCC2)c1 [KU55933] (first compound 2 µM, partner dose 5 µM) | 77.5 |
| CN(NC(=O)CC(=O)NN(C)C(=S)c1ccccc1)C(=S)c1ccccc1 + CCc1ccc(CCOc2ccc(CC3SC(=O)NC3=O)cc2)nc1 [pioglitazone] (first compound 0.03 µM, partner dose 10 µM) | 64.6 |
| NC(=O)c1ccc(N(C(N)=O)c2c(F)cccc2F)nc1-c1ccc(F)cc1F + c1cc(-c2cnn3cc(-c4ccc(OCCN5CCCCC5)cc4)cnc23)ccn1 [Dorsomorphin] (first compound 2 µM, partner dose 2 µM) | 72.7 |
